Assay results as given in the supplement of paper PMC12217912.
This is one part of the list. Sequences were assembled here from the parent chain. Values near 0.05 are background.

B1: TEV protease; numbered along this chain (parent)
chain: MGESLFKGPRDYNPISSSICHLTNESDGHTTSLYGIGFGPFIITNKHLFRRNNGTLVVQSLHGVFKVKDTTTLQQHLVDGRDMIIIRMPKDFPPFPQKLKFREPQREERICLVTTNFQTKSMSSMVSDTSCTFPSGDGIFWKHWIQTKDGQCGSPLVSTRDGFIVGIHSASNFTNTNNYFTSVPKNFMELLTNQEAQQWVSGWRLNADSVLWGGHKVFMVKPEEPFQPVKEATQL

Variants of: B1
Assay: raw area under fraction-flipped curve 0-4 h after induction (AUC4h, not background-subtracted), DNA-recorder readout of cleavage of the substrate (dimensionless); higher = more cleavage of the substrate by the protease variant
Details: temperature: 34 °C; time window: 0-4 h after rhamnose induction
Protocol: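 In vivo DNA recorder in E. coli TOP10(DE3) ΔrhaA at 34 °C. Each TEVp single-site mutant (parent TEVp 0) is paired with a single-site variant of the 7-mer TEVs (canonical ENLYFQ|S). The substrate sits between flexible linkers in a Bxb1-sfGFP-TEVs-SsrA fusion, so cleavage stabilises Bxb1 and speeds flipping of a recombination array, read by NGS. The value is the raw area under the fraction-flipped curve over 0-4 h after rhamnose induction (AUC4h), with ≥20 reads per time point. It is not background-subtracted; inactive controls average about 0.047.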
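Also: Bxb1 expression induced with 0.2% (w/v) L-rhamnose at OD600 near 0.5, cultures sampled hourly, flipped fraction per protease–substrate barcode pair counted by paired-end Illumina sequencing.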

Row | Variant | area with substrate ENAYFQS | area with substrate ENDYFQS | area with substrate ENEYFQS | area with substrate ENFYFQS | area with substrate ENIYFQS | area with substrate ENKYFQS | area with substrate ENQYFQS | area with substrate ENRYFQS | area with substrate ENSYFQS | area with substrate ENTYFQS | area with substrate ENVYFQS | area with substrate ENCYFQS | area with substrate ENHYFQS | area with substrate ENMYFQS | area with substrate ENPYFQS | area with substrate ENYYFQS | area with substrate ENNYFQS | area with substrate ENGYFQS | area with substrate ENWYFQS
1 | MGESLFKGPRDYNPISSSICHLTNESDGHTTSLYGIGFGPFIITNKHLFRRNNGTLVVQSLHGVFKVKDTTTLQQHLVDGRDMIIIRMPKDFPPFPQKLKFREPQREERICLVTTNFQTKSMSSMVSDTSCTFPSGDGIFWKHWIQTKDGQCGSPLVSTRDGFIVGIHSASNFTNTNNYFTSVPKNFMELLTNQEAQQWVSGWRLNADSVLWGLHKVFMVKPEEPFQPVKEATQL [G214L] | 0.0529 | 0.0685 | 0.0523 | 0.0541 | 0.0655 | 0.0721 | 0.067 | 0.0579 | 0.0572 | 0.0558 | 0.0668 |  |  |  |  |  |  |  | 
2 | MGESLFKGPRDYNPISSSICHLTNESDGHTTSLYGIGFGPFIITNKHLFRRNNGTLVVQSLHGVKKVKDTTTLQQHLVDGRDMIIIRMPKDFPPFPQKLKFREPQREERICLVTTNFQTKSMSSMVSDTSCTFPSGDGIFWKHWIQTKDGQCGSPLVSTRDGFIVGIHSASNFTNTNNYFTSVPKNFMELLTNQEAQQWVSGWRLNADSVLWGGHKVFMVKPEEPFQPVKEATQL [F65K] | 0.0357 | 0.0758 | 0.052 | 0.0666 |  |  | 0.0598 |  | 0.0622 | 0.0454 | 0.0782 | 0.0577 | 0.06 | 0.0824 | 0.0475 | 0.0518 |  |  | 
3 | MGESLFKGPRDYNPISSSICHLTNESDGHTTSLYGIGFGPFIITNKHLFRRNNGTLVVQSLHGVFKVKDTTTLQQHLVDGRDMIIIRMPKDFPPFPQKLKFREPQREENICLVTTNFQTKSMSSMVSDTSCTFPSGDGIFWKHWIQTKDGQCGSPLVSTRDGFIVGIHSASNFTNTNNYFTSVPKNFMELLTNQEAQQWVSGWRLNADSVLWGGHKVFMVKPEEPFQPVKEATQL [R109N] | 0.0642 | 0.0581 | 0.0546 |  |  |  | 0.0914 |  |  | 0.056 |  | 0.0648 |  | 0.0818 |  | 0.0706 |  |  | 
4 | MGESLFKGPRDYNPISSSICHLTNESIGHTTSLYGIGFGPFIITNKHLFRRNNGTLVVQSLHGVFKVKDTTTLQQHLVDGRDMIIIRMPKDFPPFPQKLKFREPQREERICLVTTNFQTKSMSSMVSDTSCTFPSGDGIFWKHWIQTKDGQCGSPLVSTRDGFIVGIHSASNFTNTNNYFTSVPKNFMELLTNQEAQQWVSGWRLNADSVLWGGHKVFMVKPEEPFQPVKEATQL [D27I] | 0.0572 | 0.0657 |  |  | 0.111 |  | 0.0606 |  | 0.0596 | 0.0636 | 0.0655 | 0.0569 | 0.0625 |  | 0.0469 | 0.0446 | 0.0735 |  | 
5 | MGESLFKGPRDYNPISSSICHLTNESDGHTTSLYGIGFGPFIITNKHLFRRNNGTLVVQSLHGVFKVKDTTTLQQHLVDGRDMIIIRMPKDFPPFPQKLKFREPQREERICLVTTNFQTKSMSSMVSDTSCTFPSGDEIFWKHWIQTKDGQCGSPLVSTRDGFIVGIHSASNFTNTNNYFTSVPKNFMELLTNQEAQQWVSGWRLNADSVLWGGHKVFMVKPEEPFQPVKEATQL [G138E] | 0.0467 |  |  |  |  |  |  |  | 0.0842 | 0.0629 |  |  | 0.0608 | 0.0511 |  |  |  |  | 
6 | MGESLFKGPRDYNPISSSICHLTNESDGHTTSLYGIGFGPFIITNKHLFRRNNGTLVVQSLHGVFKVKDTTTLQQHLVDGRDMIIIRMPKDFPPFPQKLKFREPVREERICLVTTNFQTKSMSSMVSDTSCTFPSGDGIFWKHWIQTKDGQCGSPLVSTRDGFIVGIHSASNFTNTNNYFTSVPKNFMELLTNQEAQQWVSGWRLNADSVLWGGHKVFMVKPEEPFQPVKEATQL [Q105V] | 0.0537 | 0.0627 | 0.071 |  |  |  | 0.0564 | 0.0555 | 0.0457 |  |  |  |  |  |  | 0.0418 | 0.0575 | 0.0579 | 0.0536
7 | MGESLFKGPRDYNPISSSICHLTNESDGHTTSLYGIGFGPFIITNKHLFRRNNGTLVVQSLHGVFKVKDTTTLQQHLVDGRDMIIIRMPKDFPPFPQKLKFREPQREERICLVTTNFETKSMSSMVSDTSCTFPSGDGIFWKHWIQTKDGQCGSPLVSTRDGFIVGIHSASNFTNTNNYFTSVPKNFMELLTNQEAQQWVSGWRLNADSVLWGGHKVFMVKPEEPFQPVKEATQL [Q118E] | 0.066 |  |  | 0.061 | 0.0975 |  | 0.0677 | 0.0525 | 0.0442 | 0.0808 | 0.0635 | 0.0594 |  |  |  | 0.0516 | 0.0556 | 0.0615 | 
8 | MGESLFKGPRDYNPISSSICHLTNESDGHTTSLYGIGFGPFIITNKHLFRRNNGTLVVQSLHGVFKVKDTTTLQQHLVDGRDMIIIRMPKDFPPFPQKLKFREPQRDERICLVTTNFQTKSMSSMVSDTSCTFPSGDGIFWKHWIQTKDGQCGSPLVSTRDGFIVGIHSASNFTNTNNYFTSVPKNFMELLTNQEAQQWVSGWRLNADSVLWGGHKVFMVKPEEPFQPVKEATQL [E107D] | 0.0613 | 0.067 | 0.0349 | 0.0589 | 0.13 |  | 0.0596 |  | 0.0669 |  | 0.0824 |  | 0.0684 |  |  | 0.0789 | 0.0692 | 0.0552 | 
9 | MGESLFKGPRDYNPISSSICHLTNESDGHTTSLYGIGFGPFIITNKHLFRRNNGTLVVQSLHGVFKVKDTTTLQQHLVDGRDMIIIRMPKDFPPFPQKLKFREPQREERICLVTTNFQTKSMSSMVSDTSCTFPSGDGIFWKHWIQTKDGQCGSPLVSTRDGFIVGIHSASNFTNTNNYFTSVPKNFMELLTNQEAQQWVSGWRLNADSVLWGGHKVFMVKPEEPFQPVKSATQL [E231S] | 0.046 | 0.0653 |  |  | 0.166 |  |  |  | 0.0509 | 0.0604 | 0.0727 |  | 0.0583 | 0.0744 | 0.0679 |  |  |  | 
10 | MGESLFKGPRDYNPISSSICHLTNESDGHTTSLYGIGFGPFIITNKHLFRRNNGTLVVQSLHGVFKVKDTTTLQQHLVRGRDMIIIRMPKDFPPFPQKLKFREPQREERICLVTTNFQTKSMSSMVSDTSCTFPSGDGIFWKHWIQTKDGQCGSPLVSTRDGFIVGIHSASNFTNTNNYFTSVPKNFMELLTNQEAQQWVSGWRLNADSVLWGGHKVFMVKPEEPFQPVKEATQL [D79R] | 0.0562 | 0.0584 | 0.0674 | 0.0441 |  | 0.0535 | 0.0627 |  | 0.053 |  | 0.0794 |  | 0.062 |  | 0.0532 | 0.0432 |  | 0.0613 | 
